This passage reports binding signal results from paper PMC9911399, “Two distinct binding modes provide the RNA-binding protein RbFox with extraordinary sequence specificity”.

To fix the notation:
B1: GCCAAAC (DNA:RNA)
RNA: GGGAGACCGGAAUUCAGAUUGUCCGCCAAACUUAAAUCCCGUCGUAGCCACCA
DNA 1: CAATCTGAATTCCGGTCTCCC
DNA 2: TGGTGGCTACGACGGGATT
B2: AGUACUG (DNA:RNA)
RNA: B1 RNA with G25A, C26G, C27U, A29C, A30U, C31G
DNA 1: CAATCTGAATTCCGGTCTCCC
DNA 2: TGGTGGCTACGACGGGATT
B3: GGUCGCU (DNA:RNA)
RNA: B1 RNA with C26G, C27U, A28C, A29G, A30C, C31U
DNA 1: CAATCTGAATTCCGGTCTCCC
DNA 2: TGGTGGCTACGACGGGATT
B4: AAACAGG (DNA:RNA)
RNA: B1 RNA with G25A, C26A, C27A, A28C, A30G, C31G
DNA 1: CAATCTGAATTCCGGTCTCCC
DNA 2: TGGTGGCTACGACGGGATT
B5: AAUGACG (DNA:RNA)
RNA: B1 RNA with G25A, C26A, C27U, A28G, A30C, C31G
DNA 1: CAATCTGAATTCCGGTCTCCC
DNA 2: TGGTGGCTACGACGGGATT
B6: CUGAUCC (DNA:RNA)
RNA: B1 RNA with G25C, C26U, C27G, A29U, A30C
DNA 1: CAATCTGAATTCCGGTCTCCC
DNA 2: TGGTGGCTACGACGGGATT
B7: ACACCAC (DNA:RNA)
RNA: B1 RNA with G25A, C27A, A28C, A29C
DNA 1: CAATCTGAATTCCGGTCTCCC
DNA 2: TGGTGGCTACGACGGGATT
B8: UGCAGGC (DNA:RNA)
RNA: B1 RNA with G25U, C26G, A29G, A30G
DNA 1: CAATCTGAATTCCGGTCTCCC
DNA 2: TGGTGGCTACGACGGGATT
B9: GUACGGG (DNA:RNA)
RNA: B1 RNA with C26U, C27A, A28C, A29G, A30G, C31G
DNA 1: CAATCTGAATTCCGGTCTCCC
DNA 2: TGGTGGCTACGACGGGATT
B10: GGACCAA (DNA:RNA)
RNA: B1 RNA with C26G, C27A, A28C, A29C, C31A
DNA 1: CAATCTGAATTCCGGTCTCCC
DNA 2: TGGTGGCTACGACGGGATT
B11: CACGUGG (DNA:RNA)
RNA: B1 RNA with G25C, C26A, A28G, A29U, A30G, C31G
DNA 1: CAATCTGAATTCCGGTCTCCC
DNA 2: TGGTGGCTACGACGGGATT
B12: GACGUGA (DNA:RNA)
RNA: B1 RNA with C26A, A28G, A29U, A30G, C31A
DNA 1: CAATCTGAATTCCGGTCTCCC
DNA 2: TGGTGGCTACGACGGGATT
B13: CAUAAGG (DNA:RNA)
RNA: B1 RNA with G25C, C26A, C27U, A30G, C31G
DNA 1: CAATCTGAATTCCGGTCTCCC
DNA 2: TGGTGGCTACGACGGGATT
B14: GGCCAUG (DNA:RNA)
RNA: B1 RNA with C26G, A28C, A30U, C31G
DNA 1: CAATCTGAATTCCGGTCTCCC
DNA 2: TGGTGGCTACGACGGGATT
B15: CAUGAGA (DNA:RNA)
RNA: B1 RNA with G25C, C26A, C27U, A28G, A30G, C31A
DNA 1: CAATCTGAATTCCGGTCTCCC
DNA 2: TGGTGGCTACGACGGGATT
B16: GGUUGAA (DNA:RNA)
RNA: B1 RNA with C26G, C27U, A28U, A29G, C31A
DNA 1: CAATCTGAATTCCGGTCTCCC
DNA 2: TGGTGGCTACGACGGGATT
B17: UGCUCCC (DNA:RNA)
RNA: B1 RNA with G25U, C26G, A28U, A29C, A30C
DNA 1: CAATCTGAATTCCGGTCTCCC
DNA 2: TGGTGGCTACGACGGGATT
B18: ACGGUCG (DNA:RNA)
RNA: B1 RNA with G25A, C27G, A28G, A29U, A30C, C31G
DNA 1: CAATCTGAATTCCGGTCTCCC
DNA 2: TGGTGGCTACGACGGGATT
B19: CUUCGUA (DNA:RNA)
RNA: GGGAGACCGGAAUUCAGAUUGUCCCUUCGUAUUAAAUCCCGUCGUAGCCACCA
DNA 1: CAATCTGAATTCCGGTCTCCC
DNA 2: TGGTGGCTACGACGGGATT
B20: CUACGGA (DNA:RNA)
RNA: B19 RNA with U27A, U30G
DNA 1: CAATCTGAATTCCGGTCTCCC
DNA 2: TGGTGGCTACGACGGGATT

Positions count from the first letter of the chain named. This is one part of the list.

In the assay the target is T1, RBFOX1 RRM RbFoxmut (Fox-RRM*) (Homo sapiens, UniProt Q9NWB1 109-208, R118D;E147R;N151S;E152T).
T1 sequence: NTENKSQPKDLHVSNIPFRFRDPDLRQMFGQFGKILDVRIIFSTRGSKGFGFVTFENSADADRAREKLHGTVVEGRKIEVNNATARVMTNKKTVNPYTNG
The assay is described as follows: EMSA; HiTS-Eq, 1 nM pool, 10 min; buffer printed only for the single-RNA assays: 10 mM Tris pH 7.5, 150 mM NaCl, 3.4 mM EDTA, 0.001% NP-40, 30 C. Particulars: tags: His6 N-terminal (pET28a); label: 5' 32P. In a few lines: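 Purified wild-type or mutant RbFox RRM at increasing concentrations was equilibrated with 1 nM of 5′-radiolabelled RNA carrying 7 randomized nucleotides for 10 min in 50 µL. Unbound RNA was separated by 8% native PAGE and sequenced. Relative association constants came from read-count changes of each RNA species compared with the control reaction, normalised to the cognate motif.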
A general note: A gel shift assay detects complexes by their altered migration in electrophoresis.
B1: the binding signal was 0.0488 KA relative to UGCAUGU. With B2, the binding signal was 0.0956 KA relative to UGCAUGU. On to B3, for which the binding signal is 0.0798 KA relative to UGCAUGU. With B4, the binding signal is 0.0875 KA relative to UGCAUGU. With B5 the figure was 0.0918 KA relative to UGCAUGU.

In the case of B6, the binding signal was 0.0634 KA relative to UGCAUGU. For the molecule B7, the binding signal is 0.0724 KA relative to UGCAUGU. Consider B8, for which the binding signal is 0.122 KA relative to UGCAUGU. The result for B9 reads 0.0892 KA relative to UGCAUGU.

Take B10: the binding signal was 0.0723 KA relative to UGCAUGU. On to B11, for which the binding signal is 0.0601 KA relative to UGCAUGU.

Consider B12, for which the binding signal was 0.0969 KA relative to UGCAUGU. Turning to B13, the binding signal is 0.0721 KA relative to UGCAUGU. Take B14: the binding signal was 0.244 KA relative to UGCAUGU. With B15 the figure was 0.0807 KA relative to UGCAUGU. The result for B16 reads 0.129 KA relative to UGCAUGU; that for B17, 0.0475 KA relative to UGCAUGU; that for B18, 0.123 KA relative to UGCAUGU. Take B19: the binding signal was 0.142 KA relative to UGCAUGU. On to B20, for which the binding signal was 0.0651 KA relative to UGCAUGU.
